# From ChEMBL document CHEMBL4888484, “Replenishing the malaria drug discovery pipeline: Screening and hit evaluation of the MMV Hit Generation Library 1 (HGL1) against asexual blood stage Plasmodium falciparum ,using a nano luciferase reporter read-out” (2022)
# Among all 150,000 compounds or so, about 540 (0.36%) showed an effect of 50% or more. The list shows a part of the results.
# Test system: Plasmodium falciparum
# Assay: Primary screen in NF54 nanoGlo assay, in single point, at 2uM, 72h; a lower Z score goes with more inhibition
# Assay type: functional, Erythrocyte
# Conditions: timepoint 72 hour
Compound,% Inhibition,Z score
CCN(C(=O)CN1C(=O)COc2cc(Cl)ccc21)c1cccc(C)c1,-4%,0.59
O=C(O)C1CCCC(C(=O)N2Cc3ccccc3C2)C1 (stereo not given),-17%,2.38
COc1ccc(C[C@H]2CCOC3(CCN(C(=O)c4cccc(C)c4)CC3)C2)cc1,-10%,1.28
CCn1ccnc1[C@H]1OCCC[C@@H]1c1nc(-c2nnc(-c3ccccc3)o2)no1,-2%,0.25
CC(C)Cc1ncc(-c2nc([C@H]3CN4CCC[C@H]4CO3)no2)s1,-6%,0.73
CC(=O)N1CCCN(CCC(=O)Nc2sccc2C#N)CC1,2%,-0.41
CNCC#CCOc1c(C)ccc(C)c1C,9%,-0.99
C=Cn1cc(CN2CC[C@H](CNC(=O)NC3CCCC3)C2)cn1,-12%,2.31
CN(C)C(=O)[C@@]12CCCC[C@H]1N(CCc1ccccc1)C(=O)CC2,-3%,0.31
O=C(Nc1c(O)[nH]c2ccccc2c1=O)c1ccccc1Br,-2%,0.3
C[C@H]1CN(CCn2ccnc2)CCC1(F)F,7%,-0.91
CC1(C)CN(C(=O)C[C@H]2CCCO2)Cc2cn[nH]c21,-12%,2.2
CCS(=O)(=O)N1CCCC(C(=O)N2c3ccccc3CC2C)C1 (stereo not given),-3%,0.45
N=C1C2=C3C=CC=C3C=C2CN1c1cccc2ccccc12,0%,-0.08
Cc1cccc2nc(-c3nc(C4CCCC4)nn3CCO)cn12,-8%,1.51
O=C(c1ccccc1Cl)N1CCC[C@H](OCc2ccc(Br)cc2)C1,-1%,0.18
C[C@](O)(CNc1ccc(C#N)cc1F)c1cccs1,-1%,0.11
COc1cccc([C@H]2CN(CC(N)=O)C[C@@H]2NC(=O)COC(C)C)c1,-12%,1.88
C[C@@H](C(=O)N1CCC2(CC1)NCCNC2=O)c1ccc(-c2ccccc2)c(F)c1,0%,-0.04
C[C@H]1CN(C(=O)c2cccc3c2OCO3)CCN1,-4%,0.43
CN(Cc1cccnc1)c1ncc(C(C)(C)C(=O)O)c(N2CCOCC2)n1,-5%,0.91
Cc1c(-c2cccs2)nc2ccc(Cl)cc2c1-c1ccccc1,-12%,2.31

Compound,% Inhibition,Z score
CCN(CC)S(=O)(=O)c1ccc(C(=O)Nc2cc(C)nn2-c2nc3c(c(=O)[nH]2)CCC3)cc1,2%,-0.2
Cc1noc(C)c1CCC(=O)N1CCN(c2ccnc3nncn23)CC1,-4%,0.63
COCCN(Cc1c(-c2ccccc2)nn(C)c1Oc1ccccc1OC)C(=O)NC(C)C,-15%,1.34
CCc1nnc(NCC(C)(C)CCS(C)(=O)=O)c(C#N)c1CC,2%,-0.31
CN(Cc1ccccc1)C(=O)c1cc(NC(=O)c2ccc3c(c2)OCO3)ccc1N1CCCN(C(=O)C2CCCC2)CC1,1%,-0.18
Cc1ocnc1C(=O)NCC1(CN2CCN(C)CC2)CC1,1%,-0.14
Cc1noc(C[C@H]2CCCN(Cc3cnns3)C2)n1,3%,-0.34
Cc1ccccc1CNC(=O)CN1CCN(C(=O)Nc2ccc(Br)cc2)CC1=O,-12%,1.51
COc1ccc([C@@H](NCc2nnc(C(C)C)[nH]2)C2CC2)c(F)c1,-2%,0.29
C=CCCCN1[C@@H](CO)CCS1(=O)=O,22%,-2.78
O=C(CCCC1CCOCC1)Nc1cccc(F)c1-c1nc[nH]n1,-15%,1.52
Cc1ccc(-c2ccc(C(=O)N(CCO)Cc3nccs3)cc2)c(C)n1,-6%,0.87
Cc1ccccc1NC(=O)Cc1nc(C)c(-c2ccccc2)s1,1%,-0.09
Cc1nn(C)c(C)c1C(=O)N1CCOC2(CC3CCC2C3)C1 (stereo not given),-11%,1.05
CC[C@@H](CO)NCc1ccc(OC(C)C)cc1,-13%,1.71
CNc1snc(C)c1C(=O)N1CCN(c2ccccc2OC)CC1,-8%,1.4
CNC(=O)NC1CCN(C(=O)[C@]2(C)CCOc3ccccc32)CC1,7%,-1.13
Cc1ccc(C2CCN(C(=O)Nc3cnc4c(c3)CC(N)CC4)C2)c(C)c1 (stereo not given),1%,-0.12
Cc1ccc(C)c(CN(Cc2nc(C(=O)NCc3ccco3)co2)[C@@H](C)c2ccccc2)c1,-18%,3.44
CCc1ccccc1N1C(=O)C2C(O)CCCN2C1=O (stereo not given),-3%,0.44
Cc1cnc(C2CC2)n1CCNC(=O)CC(C)C,-1%,0.25
O=C(NCCC1=CCCCC1)c1coc(CN2CCN(Cc3ccccc3)CC2)n1,-7%,0.96

Compound,% Inhibition,Z score
O=C(Cc1ncccc1F)N1CCCS(=O)(=O)C[C@H]1C1CC1,-9%,1.91
CC(C)Cn1cncc1CNC(=O)CN1CCN(C)C1=O,-21%,1.84
O=C(N[C@@H]1CN(Cc2ccc(CO)o2)CCC[C@H]1O)c1ccc(OCc2ccccc2)cc1,26%,-2.94
O=C(NCc1ccc(-n2cnc3ccccc32)cc1Cl)[C@H]1CCOC1,31%,-3.5
O=C(NC[C@H](c1ccc(F)cc1)c1c[nH]c2ccccc12)Nc1ccc(Cl)cc1,-7%,1.23
CCCCNC(=O)c1c(-c2ccc(Cl)cc2)c2cc(CC)ccc2n1C,-2%,0.24
COc1cccc2c1NC(=O)C[C@H]2C(=O)NCc1ccc2c(c1)CCCC2,-11%,2.18
COC(C)(C)CNC(=O)Cc1cc(C)[nH]n1,2%,-0.26
CCOC(=O)c1cc(-c2cccc(NC(=O)c3ccc4nonc4c3)c2)n(-c2ccccc2F)n1,-7%,1.01
CC(C)(C)OC(=O)N[C@](C)(CO)Cc1ccccc1,-12%,1.67
O=C(c1ccsc1)N1CCC[C@H]1c1n[nH]c2c1COCC2,-8%,0.75
NC(=O)COCC(=O)N1C[C@@H]2CC[C@@H](C2)C1,-3%,0.47
COc1cc(CS(=O)(=O)Cc2scnc2C)ccc1Cl,2%,-0.24
O=C(CCn1cncn1)NCC1(c2cccc(Br)c2)CCC1,-4%,0.55
CC1(C)CCCN1C(=O)c1cccc(S(=O)(=O)N2CCCc3ccccc32)c1,1%,-0.07
CC[C@@H](CNS(C)(=O)=O)Nc1ncc(F)c(-c2ccsc2)n1,-4%,0.65
O=C(Nc1ccc(F)cc1)N1C[C@H]2CC[C@@H](C1)N(Cc1ccccn1)C2=O,-11%,2.17
CCC(=O)N1CCC[C@H](Oc2ncc(Cl)cn2)C1,1%,-0.17
Cc1ccc(Cl)cc1-n1ncc2c(Nc3ccc4c(c3)OCO4)ncnc21,2%,-0.24
O=C(O)c1ccccc1OCCN1CC[C@@H](C(F)(F)F)C2(CCOCC2)C1,-7%,1.11
COc1cccc(CN2CCC[C@@](O)(CN3CCS(=O)(=O)CC3)C2=O)c1,-1%,0.1
CCC(C)N(CCNC(=O)C1CCCN(c2nc3c(C)cc(C)cc3s2)C1)C1CCCCC1 (stereo not given),10%,-1.32

Compound,% Inhibition,Z score
CC1(C)CN(S(=O)(=O)c2ccccc2)C[C@@H]2CN(C(=O)c3ccccc3F)CCN21,29%,-3.29
O=C(CCNC(=O)C1CCCCC1)Nc1ccccc1,-2%,0.41
CCCc1nc(C)c(CNC(=O)C2(N3CCOCC3)CCCCC2)s1,-15%,1.45
O=C(NCC1CC1)C(=O)Nc1ccc2c(c1)C(=O)N(CC1CC1)C2=O,-11%,0.96
C[C@@H](CN1CCCC1=O)NC(=O)Nc1ccc(F)c(NC(=O)C2CCCCC2)c1,3%,-0.52
Cc1csc(-c2csc(Nc3cnccc3C)n2)c1,1%,-0.16
Cc1nnc(C(=O)Nc2ccc(C(=O)NCc3ccccn3)cc2)s1,-1%,0.13
Cc1nnsc1CNC(=O)c1c[nH]nc1-n1cnnn1,6%,-0.8
COc1ccccc1C(=O)Nc1ccc2c(c1)N(C(=O)c1ccccc1)CCC2,-9%,0.89
O=C(NCCCc1ccccc1)c1coc(CN2CCN(c3ncccn3)CC2)n1,-19%,3.53
O=C(O)[C@H]1CC[C@H](C(=O)Nc2ccsc2)CC1,-5%,1
Cc1c(NC(=O)Nc2ccc(N3CC(C)OC(C)C3)cc2)cnn1CCO (stereo not given),-10%,0.99
O=S(=O)(c1cccc2nsnc12)N1CC(n2cnnc2C2CC2)C1,-5%,0.77
COc1ccnc(C(=O)NCCCC[C@H]2CCCO2)c1,-10%,1.95
COc1ccc(C)cc1NC(=O)c1ccc2c(c1)CCCC2,-33%,3.84
Cc1nccc(-c2ccccc2)c1C(=O)NCc1cc2n(n1)CCCNC2,-7%,1.05
COCCN(Cc1cnn(C)c1)C(=O)Cc1ccccn1,-11%,1.68
CC(C)CNCc1ccc(Br)cc1,6%,-0.79
CCNC(=O)N1CC[C@@](F)(C(=O)NCc2ccccc2)C1,-1%,0.12
